Measured values as given in the supplement of paper PMC8728848.
Some of the results follow.

Legend:
Assay in all cases: glycan array binding signal (z-score within array); higher = stronger binding
Settings in all cases: glycan notation: IUPAC condensed, linker removed; mutation: R74S
[1] = target: Neu5Ac(a2-3)Gal(b1-3)]Neu5Ac(a2-3)Gal(b1-4)]GlcNAc
Method in brief: (§1)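 The binding signal is a Z-score computed within each array and averaged over linkers. Arrays of the same protein sequence at different concentrations or buffers were also averaged together. Data originate from 3228 arrays in the Consortium for Functional Glycomics database, kept only where the protein sequence was available.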

Neu5Ac(a2-3)Gal(b1-4)Glc = target: Neu5Ac(a2-3)Gal(b1-4)Glc
Method in brief: as §1

[2] = target: Neu5Ac(a2-3)Gal(b1-4)GlcNAc
Method in brief: as §1

[3] = target: Neu5Ac(a2-3)Gal(b1-4)GlcNAc(b1-2)Man
Method in brief: as §1

[4] = target: Neu5Ac(a2-3)Gal(b1-4)GlcNAc(b1-2)Man(a1-3)[GlcNAc(b1-4)][Neu5Ac(a2-3)Gal(b1-4)GlcNAc(b1-2)Man(a1-6)]Man(b1-4)GlcNAc(b1-4)GlcNAc
Method in brief: as §1

[5] = target: Neu5Ac(a2-3)Gal(b1-4)GlcNAc(b1-2)Man(a1-3)[Neu5Ac(a2-3)Gal(b1-4)GlcNAc(b1-2)Man(a1-6)]Man(b1-4)GlcNAc(b1-4)GlcNAc
Method in brief: as §1

[6] = target: Neu5Ac(a2-3)Gal(b1-4)GlcNAc(b1-2)Man(a1-3)[Neu5Ac(a2-3)Gal(b1-4)GlcNAc(b1-2)Man(a1-6)]Man(b1-4)GlcNAc(b1-4)[Fuc(a1-6)]GlcNAc
Method in brief: as §1

[7] = target: Neu5Ac(a2-3)Gal(b1-4)GlcNAc(b1-2)Man(a1-3)[Neu5Ac(a2-6)Gal(b1-4)GlcNAc(b1-2)Man(a1-6)]Man(b1-4)GlcNAc(b1-4)GlcNAc
Method in brief: as §1

[8] = target: Neu5Ac(a2-3)Gal(b1-4)GlcNAc(b1-2)[Neu5Ac(a2-3)Gal(b1-4)GlcNAc(b1-4)]Man(a1-3)[GlcNAc(b1-4)][Neu5Ac(a2-3)Gal(b1-4)GlcNAc(b1-2)[Neu5Ac(a2-3)Gal(b1-4)GlcNAc(b1-6)]Man(a1-6)]Man(b1-4)GlcNAc(b1-4)GlcNAc
Method in brief: as §1

[9] = target: Neu5Ac(a2-3)Gal(b1-4)GlcNAc(b1-2)[Neu5Ac(a2-3)Gal(b1-4)GlcNAc(b1-4)]Man(a1-3)[GlcNAc(b1-4)][Neu5Ac(a2-3)Gal(b1-4)GlcNAc(b1-4)Man(a1-6)]Man(b1-4)GlcNAc(b1-4)GlcNAc
Method in brief: as §1

[10] = target: Neu5Ac(a2-3)Gal(b1-4)GlcNAc(b1-2)[Neu5Ac(a2-3)Gal(b1-4)GlcNAc(b1-6)]Man(a1-6)[Neu5Ac(a2-3)Gal(b1-4)GlcNAc(b1-2)Man(a1-3)][GlcNAc(b1-4)]Man(b1-4)GlcNAc(b1-4)GlcNAc
Method in brief: as §1

[11] = target: Neu5Ac(a2-3)Gal(b1-4)GlcNAc(b1-3)Gal
Method in brief: as §1

[12] = target: Neu5Ac(a2-3)Gal(b1-4)GlcNAc(b1-3)Gal(b1-3)GlcNAc
Method in brief: as §1

[13] = target: Neu5Ac(a2-3)Gal(b1-4)GlcNAc(b1-3)Gal(b1-4)GlcNAc
Method in brief: as §1

[14] = target: Neu5Ac(a2-3)Gal(b1-4)GlcNAc(b1-3)Gal(b1-4)GlcNAc(b1-2)Man(a1-3)[Neu5Ac(a2-3)Gal(b1-4)GlcNAc(b1-3)Gal(b1-4)GlcNAc(b1-2)Man(a1-6)]Man(b1-4)GlcNAc(b1-4)GlcNAc
Method in brief: as §1

[15] = target: Neu5Ac(a2-3)Gal(b1-4)GlcNAc(b1-3)Gal(b1-4)GlcNAc(b1-3)Gal(b1-4)GlcNAc
Method in brief: as §1

[16] = target: Neu5Ac(a2-3)Gal(b1-4)GlcNAc(b1-3)Gal(b1-4)GlcNAc(b1-3)Gal(b1-4)GlcNAc(b1-2)Man(a1-3)[Neu5Ac(a2-3)Gal(b1-4)GlcNAc(b1-3)Gal(b1-4)GlcNAc(b1-3)Gal(b1-4)GlcNAc(b1-2)Man(a1-6)]GalNAc
Method in brief: as §1

[17] = target: Neu5Ac(a2-3)Gal(b1-4)GlcNAc(b1-3)Gal(b1-4)GlcNAc(b1-3)GalNAc
Method in brief: as §1

[18] = target: Neu5Ac(a2-3)Gal(b1-4)GlcNAc(b1-3)Gal(b1-4)GlcNAc(b1-3)[Neu5Ac(a2-3)Gal(b1-4)GlcNAc(b1-3)Gal(b1-4)GlcNAc(b1-6)]GalNAc
Method in brief: as §1

[19] = target: Neu5Ac(a2-3)Gal(b1-4)GlcNAc(b1-3)Gal(b1-4)GlcNAc(b1-6)[Gal(b1-3)]GalNAc
Method in brief: as §1

[20] = target: Neu5Ac(a2-3)Gal(b1-4)GlcNAc(b1-3)Gal(b1-4)[Fuc(a1-3)]GlcNAc
Method in brief: as §1

[21] = target: Neu5Ac(a2-3)Gal(b1-4)GlcNAc(b1-3)GalNAc
Method in brief: as §1

[22] = target: Neu5Ac(a2-3)Gal(b1-4)GlcNAc(b1-3)[Neu5Ac(a2-3)Gal(b1-4)GlcNAc(b1-6)]GalNAc
Method in brief: as §1

[23] = target: Neu5Ac(a2-3)Gal(b1-4)GlcNAc(b1-6)GalNAc
Method in brief: as §1

[24] = target: Neu5Ac(a2-3)Gal(b1-4)GlcNAc(b1-6)[Gal(b1-3)]GalNAc
Method in brief: as §1

[25] = target: Neu5Ac(a2-3)Gal(b1-4)GlcNAc(b1-6)[Neu5Ac(a2-3)Gal(b1-3)]GalNAc
Method in brief: as §1

[26] = target: Neu5Ac(a2-3)Gal(b1-4)GlcNAc6S
Method in brief: as §1

[27] = target: Neu5Ac(a2-3)Gal(b1-4)[Fuc(a1-3)]GlcNAc
Method in brief: as §1

[28] = target: Neu5Ac(a2-3)Gal(b1-4)[Fuc(a1-3)]GlcNAc(b1-2)Man
Method in brief: as §1

[29] = target: Neu5Ac(a2-3)Gal(b1-4)[Fuc(a1-3)]GlcNAc(b1-3)Gal
Method in brief: as §1

[30] = target: Neu5Ac(a2-3)Gal(b1-4)[Fuc(a1-3)]GlcNAc(b1-3)Gal(b1-4)GlcNAc
Method in brief: as §1

[31] = target: Neu5Ac(a2-3)Gal(b1-4)[Fuc(a1-3)]GlcNAc(b1-3)Gal(b1-4)[Fuc(a1-3)]GlcNAc(b1-3)Gal(b1-4)[Fuc(a1-3)]GlcNAc
Method in brief: as §1

[32] = target: Neu5Ac(a2-3)Gal(b1-4)[Fuc(a1-3)]GlcNAc(b1-3)GalNAc
Method in brief: as §1

[33] = target: Neu5Ac(a2-3)Gal(b1-4)[Fuc(a1-3)]GlcNAc(b1-6)[Gal(b1-3)]GalNAc
Method in brief: as §1

[34] = target: Neu5Ac(a2-3)Gal(b1-4)[Fuc(a1-3)]GlcNAc(b1-6)[Neu5Ac(a2-3)Gal(b1-3)]GalNAc
Method in brief: as §1

[35] = target: Neu5Ac(a2-3)Gal(b1-4)[Fuc(a1-3)]GlcNAc6S
Method in brief: as §1

[36] = target: Neu5Ac(a2-3)Gal6S(b1-4)GlcNAc
Method in brief: as §1

[37] = target: Neu5Ac(a2-3)Gal6S(b1-4)[Fuc(a1-3)]GlcNAc
Method in brief: as §1

B1: Gal 7 (Homo sapiens) (protein)
chain: MSNVPHKSSLPEGIRPGTVLRIRGLVPPNASRFHVNLLCGEEGGSDAALHFNPRLDTSEVVFNSKEGGSWGREESGPGVPFGRGQPFEVLIIASDDGFKAVVGDAQYHHFRHRLPLARVRLVEVGGDVQLDSVRIF
glycan array binding signal (z-score) [1]: -0.355
glycan array binding signal (z-score) (Neu5Ac(a2-3)Gal(b1-4)Glc): -0.141
glycan array binding signal (z-score) [2]: -0.58
glycan array binding signal (z-score) [3]: 0.603
glycan array binding signal (z-score) [4]: -0.325
glycan array binding signal (z-score) [5]: -0.442
glycan array binding signal (z-score) [6]: 0.751
glycan array binding signal (z-score) [7]: -0.512
glycan array binding signal (z-score) [8]: -0.437
glycan array binding signal (z-score) [9]: -0.179
glycan array binding signal (z-score) [10]: -0.024
glycan array binding signal (z-score) [11]: -0.541
glycan array binding signal (z-score) [12]: -0.714
glycan array binding signal (z-score) [13]: -0.509
glycan array binding signal (z-score) [14]: 0.032
glycan array binding signal (z-score) [15]: -0.093
glycan array binding signal (z-score) [16]: 1.21
glycan array binding signal (z-score) [17]: -0.558
glycan array binding signal (z-score) [18]: -0.32
glycan array binding signal (z-score) [19]: -0.149
glycan array binding signal (z-score) [20]: -0.278
glycan array binding signal (z-score) [21]: -0.311
glycan array binding signal (z-score) [22]: -0.377
glycan array binding signal (z-score) [23]: -0.433
glycan array binding signal (z-score) [24]: -0.065
glycan array binding signal (z-score) [25]: -0.553
glycan array binding signal (z-score) [26]: -0.783
glycan array binding signal (z-score) [27]: -0.573
glycan array binding signal (z-score) [28]: -0.6
glycan array binding signal (z-score) [29]: -0.471
glycan array binding signal (z-score) [30]: 1.25
glycan array binding signal (z-score) [31]: 0.389
glycan array binding signal (z-score) [32]: 1.62
glycan array binding signal (z-score) [33]: 1
glycan array binding signal (z-score) [34]: 1.3
glycan array binding signal (z-score) [35]: -0.478
glycan array binding signal (z-score) [36]: -0.663
glycan array binding signal (z-score) [37]: -0.211
